Laboratory results published in patent publication US20100093623A1, “COMPOSITIONS AND METHODS FOR […]-LIKE RECEPTOR ACTIVITY AND USES THEREOF” (Burnham Institute for Medical Research, priority 2008, published 2010).

Molecular target: T1, NLRP1 (Homo sapiens, UniProt Q9C000)
T1 sequence (Q9C000 1-1473): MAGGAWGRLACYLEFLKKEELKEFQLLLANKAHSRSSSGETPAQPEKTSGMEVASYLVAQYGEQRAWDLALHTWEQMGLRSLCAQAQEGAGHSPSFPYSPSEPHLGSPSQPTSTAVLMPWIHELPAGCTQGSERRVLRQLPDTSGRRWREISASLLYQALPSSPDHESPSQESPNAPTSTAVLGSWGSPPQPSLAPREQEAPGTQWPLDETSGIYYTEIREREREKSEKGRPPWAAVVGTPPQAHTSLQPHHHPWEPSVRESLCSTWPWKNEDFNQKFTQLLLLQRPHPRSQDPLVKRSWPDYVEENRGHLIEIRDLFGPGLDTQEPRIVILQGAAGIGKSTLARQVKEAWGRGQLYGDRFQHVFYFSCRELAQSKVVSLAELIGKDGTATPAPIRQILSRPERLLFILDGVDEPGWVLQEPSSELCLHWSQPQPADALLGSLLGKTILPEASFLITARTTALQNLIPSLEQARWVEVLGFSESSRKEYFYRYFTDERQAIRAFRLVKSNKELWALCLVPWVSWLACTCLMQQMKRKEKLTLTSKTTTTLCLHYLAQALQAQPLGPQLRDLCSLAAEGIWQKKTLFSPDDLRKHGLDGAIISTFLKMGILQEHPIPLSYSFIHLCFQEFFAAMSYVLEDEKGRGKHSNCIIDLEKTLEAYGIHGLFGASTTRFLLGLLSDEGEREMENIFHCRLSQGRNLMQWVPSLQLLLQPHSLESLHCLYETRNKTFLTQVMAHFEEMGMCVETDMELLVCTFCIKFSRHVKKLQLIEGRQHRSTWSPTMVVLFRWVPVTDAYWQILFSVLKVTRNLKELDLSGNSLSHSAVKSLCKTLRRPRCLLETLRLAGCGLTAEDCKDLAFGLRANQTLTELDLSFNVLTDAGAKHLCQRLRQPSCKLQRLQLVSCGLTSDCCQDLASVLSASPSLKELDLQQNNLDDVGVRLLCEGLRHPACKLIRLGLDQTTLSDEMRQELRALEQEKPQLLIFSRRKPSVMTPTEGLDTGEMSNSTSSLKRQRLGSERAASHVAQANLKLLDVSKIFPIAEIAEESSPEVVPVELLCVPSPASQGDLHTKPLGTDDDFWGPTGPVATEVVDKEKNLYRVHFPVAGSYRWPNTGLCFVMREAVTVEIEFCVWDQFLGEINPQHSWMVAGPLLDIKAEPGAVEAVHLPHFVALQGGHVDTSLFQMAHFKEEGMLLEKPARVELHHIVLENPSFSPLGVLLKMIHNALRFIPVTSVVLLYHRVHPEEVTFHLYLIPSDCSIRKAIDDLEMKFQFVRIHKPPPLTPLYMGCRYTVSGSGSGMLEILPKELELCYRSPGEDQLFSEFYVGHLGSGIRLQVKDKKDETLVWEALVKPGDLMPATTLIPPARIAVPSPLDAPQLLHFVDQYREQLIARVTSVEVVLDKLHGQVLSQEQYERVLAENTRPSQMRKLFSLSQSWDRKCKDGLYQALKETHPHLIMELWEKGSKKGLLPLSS
Assay: FITC-ATP binding to NLRP1 by fluorescence polarization assay (FPA)
Details: various amounts of protein; NLRP1 0.1 μM

Row | Substance | concentration-dependence of suppression of FITC-ATP binding to NLRP1
1 | Bcl-2: anti-apoptotic protein; recombinant GST-fusion lacking C-terminal transmembrane domain (SEQ ID NO:3/4) | concentration-dependent and saturable
2 | Bcl-XL: anti-apoptotic protein; recombinant GST-fusion lacking C-terminal transmembrane domain | concentration-dependent and saturable
